{"source": "the supplement of paper PMC11417369", "note": "± gives the standard deviation of the averaged measurements. This is one part of the list."}
{"system": "PfAP2-LT AP2 domain (GST-tagged)", "assay": "gcPBM binding intensity (ln(normalized median fluorescence intensity)); higher = stronger DNA binding", "method_in_brief": "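The binding buffer was 1× PBS containing 1% milk, 0.2 mg/ml BSA, 0.5% salmon testes DNA and 0.03% Triton X-100. In it, GST-tagged P. falciparum DNA-binding domains expressed in E. coli were applied for 1 h to an Agilent 4 × 180k array of primer-extended double-stranded 36-bp intergenic genomic probes plus negative controls. Binding intensity, read with Alexa488 anti-GST antibody and a 488 nm scan, is the highest Masliner-normalised natural-log median intensity across replicate spots of either probe orientation.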"}
{"sequence": "GATTTATATAATTCAAGTACTAAAAATATTTTTAAT [XGTACX_site5285]", "gcPBM binding intensity (ln)": "8.3 ± 0.4"}
{"sequence": "TAAGACTATTAAAAAATTGAGTACATGAACTGTTCA [GTGCAC_negctrl_site670]", "gcPBM binding intensity (ln)": "8.41 ± 0.34"}
{"sequence": "AAATATAAAAAATATACACACATATATAATATATAT [CACACA_site2963]", "gcPBM binding intensity (ln)": "9.01 ± 0.4"}
{"sequence": "TGTATATTTGATTCATGTACATATTTTATTTTAACT [XGTACX_site5169]", "gcPBM binding intensity (ln)": "8.82 ± 0.56"}
{"sequence": "CAGATTTATTCAAACGCATGCTGTTTTAAAATAAAA [TGCATGCA_site874]", "gcPBM binding intensity (ln)": "8.4 ± 0.47"}
{"sequence": "CCTATATAATTATAATGTACTTGTAAAAAATATAAC [XGTACX_site2864]", "gcPBM binding intensity (ln)": "8.61 ± 0.33"}
{"sequence": "AATGTATTTAAACTGACACACAAAAAAAATAAAATA [CACACA_site2138]", "gcPBM binding intensity (ln)": "8.89 ± 0.62"}
{"sequence": "ATATTGTAAGTAAACACACACACATCTATAGGTATA [CACACA_site6462]", "gcPBM binding intensity (ln)": "9.6 ± 0.23"}
{"sequence": "TTTAAAATATTAAAATGTACATATATATATATATAT [XGTACX_site6784]", "gcPBM binding intensity (ln)": "9.11 ± 0.34"}
{"sequence": "ATCCGCTGCCTTTTGGTGCAGAACATAATCATGTAA", "gcPBM binding intensity (ln)": "8.61 ± 0.38"}
{"sequence": "TATATATATATATATACACACATACATATATATATT [CACACA_site8185]", "gcPBM binding intensity (ln)": "9.79 ± 0.18"}
{"sequence": "ACATAAATATATTTTTCACACATCCTTAGTTATGAA [CACACA_site5179]", "gcPBM binding intensity (ln)": "8.65 ± 0.43"}
{"sequence": "ATATTTACTCACGTCTTGCACTGAGCAAGCATTATA", "gcPBM binding intensity (ln)": "8.87 ± 0.36"}
{"sequence": "TCATGTTTTTAATATTGTACTCTCATTTTATATATC [XGTACX_site8412]", "gcPBM binding intensity (ln)": "8.93 ± 0.45"}
{"sequence": "AGCTATTAATTTATTACATGCAAGATTAAAAGACTA [TGCATGCA_site281]", "gcPBM binding intensity (ln)": "8.56 ± 0.41"}
{"sequence": "TTTTGATTTTTTTATTGTACCCATAAACATATAATT [XGTACX_site5202]", "gcPBM binding intensity (ln)": "8.57 ± 0.59"}
{"sequence": "GGTATTTATGGACGCGTGCACACACATATGAACAAA", "gcPBM binding intensity (ln)": "9.45 ± 0.4"}
{"sequence": "TATTTTTGAAGTTGCACACACAAAAATAAAAAGTAT [CACACA_site418]", "gcPBM binding intensity (ln)": "9.12 ± 0.34"}
{"sequence": "TACAAACAATTAAACAAACACACATATACATGTATA [CACACA_site2061]", "gcPBM binding intensity (ln)": "8.9 ± 0.38"}
{"sequence": "ATTTTTTATGAAAACATAAAAAAATGAGATAACCAT [CACACA_negctrl_site894]", "gcPBM binding intensity (ln)": "8.71 ± 0.4"}
{"sequence": "AAAAAAAAAAGACACACACACACACGGACACATACA [CACACA_site7363]", "gcPBM binding intensity (ln)": "10.3 ± 0.13"}
{"sequence": "AAAAAAAAAAAAAAATCACACATTGGTTAAATATTA [CACACA_site5344]", "gcPBM binding intensity (ln)": "8.46 ± 0.3"}
{"sequence": "CTATCAAATAATAGCAAACACACAAAAAATAAAAAA [CACACA_site4147]", "gcPBM binding intensity (ln)": "9.04 ± 0.45"}
{"sequence": "ATTCATACATGCACACGTACATATTTAAATATAAAA [XGTACX_site8388]", "gcPBM binding intensity (ln)": "9.04 ± 0.36"}
{"sequence": "TATTTATACATACGTACACACAAATATTAAAATATA [CACACA_site7004]", "gcPBM binding intensity (ln)": "8.89 ± 0.38"}
